The supplement of paper PMC11417369
Some of the results follow.

What follows are sequences tested on PfSIP2 AP2 domain 1 (GST-tagged) (assay: gcPBM binding intensity (ln(normalized median fluorescence intensity)); higher = stronger DNA binding).
In short: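 After 1 h on an Agilent 4 × 180k array of primer-extended double-stranded 36-bp intergenic genomic probes and negative controls, bound GST-tagged P. falciparum DNA-binding domains were detected with Alexa488 anti-GST antibody and scanned at 488 nm. The domains had been expressed in E. coli, and binding took place in 1× PBS with 1% milk, 0.2 mg/ml BSA, 0.5% salmon testes DNA and 0.03% Triton X-100. Binding intensity is the highest Masliner-normalised natural-log median intensity across replicate spots of either probe orientation.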

Row | Sequence | gcPBM binding intensity (ln)
1 | CATTTTTCTATATGTGCATGTAAGATAAGAATAATT [TGCATGCA_site107] | 8.22
2 | TCATATAATATTTATATGCACACTTTTCTATATATA [CACACA_site4075] | 7.57
3 | TTTCGTCATTTTGTTTTTAATTCTACAATTTAGTTA [XGTACX_negctrl_site286] | 7.11
4 | ACTTACACATTTATTACACACATAAAGGAAAATTTT [CACACA_site1356] | 7.68
5 | ATATTTAAATGGATCACACATATATATATATATATA [CACACA_site5255] | 9.78
6 | CACTAATAGTGGATTACACACATATATATGTATATA [CACACA_site2531] | 7.18
7 | CGCGAAGTAGCATTCACACACAGCAAAATATATATA [CACACA_site3495] | 7.11
8 | TACTAAAACCCATACACACACATATATATAGTACCA [CACACA_site3184] | 7.05
9 | TTTTTAACATTTAAATGTACATGTTACAATTTAAAG [XGTACX_site8789] | 6.91
10 | TTTTTATTTTTATACATATAATATATTATGATTAAA [CACACA_negctrl_site214] | 6.94
11 | ACAGCATAATCATGCTGTACATTATTTTCTTAAGTA [XGTACX_site8456] | 6.7
12 | AGAGACTTAGAAAACACACATACATAAGATAATTTA [CACACA_site2377] | 6.82
13 | AATAAAATAATAAAAGCACACAAGAATACAGACAAA [CACACA_site112] | 7.22
14 | ATGTAAAACATAAAATGTACATATTATACAAACTAT [XGTACX_site5797] | 7.22
15 | TAAGTATAAATATTTACACACATTTGTTTTTTTTTA [CACACA_site7731] | 6.89
16 | GGATAATATATTAGAACACACATATATCTGTAAAAA [CACACA_site4266] | 6.84
17 | TAATATAATATATGCACACAAATATGTATATATGTG [CACACA_site2134] | 7.85
18 | AACTATTTTATTATATGTACTTACGAATTTATAAAA [XGTACX_site5262] | 7.04
19 | TAATATACATAATAATGTACATATTTTCATATATAC [XGTACX_site6913] | 7.01
20 | CACAAAATAAATTAAACACACAACATCAGATATGTA [CACACA_site6529] | 6.9
21 | TGTGTTGTAACAAAATGTACGAGCTTGATGTAGAAT [XGTACX_site2293] | 7.48
22 | ATAAACTGATGTGTATGTACACATGTAATAATAAAT [XGTACX_site7649] | 7.28

Row | Sequence | gcPBM binding intensity (ln)
23 | AATGTAGGTTTATTTACACACAAATATAAATATATA [CACACA_site1523] | 6.84
24 | TATTTTTCTTTATTGGTACACACGAAAAAAAAATTG [CACACA_site3054] | 7.14
25 | AAAATCCAGTTTTCAAAATTGAACAAAAAAAAAATA [GTGCAC_negctrl_site542] | 6.64
26 | AAAAAAAAATTTAAGTGTACATTCCATTTTAGTTTA [XGTACX_site5286] | 6.74
27 | AAAATATATATGTATGTTTATATGTTTATATATATT [XGTACX_negctrl_site337] | 6.97
28 | TCTAAGTATAAAGACACACAGAATAAAAAAAAATAT [CACACA_site2367] | 7.13
29 | TATTTAATATATTTATGTACATATTTATTTATTATT [XGTACX_site524] | 6.87
30 | AAGAAGCATAAATGTACACACATATTTATATATCAA [CACACA_site6743] | 6.97
31 | AAAGGATATGGACACACACACACATATATATATATA [CACACA_site8686] | 9.2
32 | CAACACTTATTGAAACGTACGCATATAGTTTCTTTT [XGTACX_site8960] | 6.9
33 | TTTATTTATATTTATACACACAAACATAATACTACT [CACACA_site7039] | 7.03
34 | ATATATTTTTTAAACACACACATAAATATTTGTGTA [CACACA_site2879] | 7.08
35 | ATATATATATATATATGTACATATTTTAATAATTAA [XGTACX_site8549] | 9.52
36 | CGCGCACACGGACACACACACACACGGATATAAATA [CACACA_site7102] | 7.46
37 | TGTTGTTACATATATACACACATATATATATTATAT [CACACA_site2397] | 7.23
38 | TAATATAGTATAGTATGTACATATAATTAGAATATT [XGTACX_site4053] | 7.29
39 | TGGTATATATTTCCTTGTACATATAATATATATTGT [XGTACX_site3961] | 7.17
40 | TATTAAAGGGGTTTCACACACATGTATAATTAATTT [CACACA_site200] | 6.83
41 | AACCATATTTAGATTACACACAGTTTAAATATTTTA [CACACA_site6712] | 6.84
42 | AATATGAACAGACACACACACACAAAAAAAAAAAAA [CACACA_site2012] | 7.19
43 | AATTTGTTATGTATATGTACATAAATAGATATATGA [XGTACX_site3930] | 7.1
44 | TCTTGACGAAGTAGAAGGATATATATATAAAAAAAA [CACACA_negctrl_site641] | 6.85

Row | Sequence | gcPBM binding intensity (ln)
45 | TCCAGGTATTTATTCTGTACACATAAAACATTTTAT [XGTACX_site8472] | 6.99
46 | TCGTCTCTTCTTGTTCTGTTTTAGAAGGCTATATAT [CACACA_negctrl_site180] | 7.17
47 | AGGAGGTCAGTTCACAGTACCCAGAAAACTCTACGA [XGTACX_site1992] | 6.55
48 | CAAAACCTACATAACATACACACGCATATATAGAAT [CACACA_site2846] | 7.04
49 | TTCTTATCAAGAGAAAGTACATAAAAAATTAATAAG [XGTACX_site1821] | 7.16
50 | CATGCAATATTAAACACACACTCATATAGCACAATA [CACACA_site6182] | 7.24
51 | CCAACAAAAATAAGCACACACAAATATACATACATA [CACACA_site3606] | 6.99
52 | ACAGTATCTGGTAGCTGTACGGATTGTAGAGAGTAG [XGTACX_site4872] | 7.71
53 | AGAATAATAAAATGGGTGCAATAGTTTTTTTTTTTT [GTGCAC_site9823] | 10.4
54 | TTGGATTTTCCATAATGTACACATAAAAGTGTTACA [XGTACX_site4544] | 6.99
55 | TTTTAAAAAATATAATATAATATAATATAAAATAAA [CACACA_negctrl_site154] | 6.83
56 | TATACCTATAGACACACACACATATAGATTTATATA [CACACA_site7124] | 7.1
57 | CGCATACACAGACACACACACACATATAAATATGTA [CACACA_site6444] | 7.47
58 | AATTTTTTATTAAACACACAAACATATATATATATA [CACACA_site1937] | 9
59 | GTTCATACTTAATATTGTACTTTTCATGTAGTGTAT [XGTACX_site6613] | 7.05
60 | AAATAAATATTTATATGTACATATATTTTATAATAC [XGTACX_site7041] | 7.34
61 | TAACATATTTTTAATACACACTCAAAAAAGTACTTA [CACACA_site5638] | 6.96
62 | TACAAATATATATGCACACACATATACATACATATA [CACACA_site2182] | 7.31
63 | TATTAGATATAATATATACACACCAACGAACGAAGA [CACACA_site1134] | 7.58
64 | TTATATAATTTAATAGTGCAATTATATTAATTTTTC | 7.73
65 | ATATATATATGTTACTGTACTAATTTATATGTTAAT [XGTACX_site3341] | 9.11
66 | AATACAAATATATACACACATACATACATACATATA [CACACA_site3147] | 7.14

Row | Sequence | gcPBM binding intensity (ln)
67 | TAGATATATAATTTGCGTACACAAATAATATATTTT [XGTACX_site6397] | 6.99
68 | TAGTTTTCTTAAAGATGTACATTTTAAAAATAATCT [XGTACX_site255] | 7
69 | CACAAAAATAGACACACACACATATAGATTTATTAT [CACACA_site7676] | 6.99
70 | TTATGGTTTAAATAAAGTACAAATAAATAAATATAT [XGTACX_site5777] | 7.17
71 | ATACACATATGTTAATGTACACATATATAATATTTA [XGTACX_site163] | 7.18
72 | TTATGAAAAATAAAATTAGAAAAAAAGGAAAATGAA [XGTACX_negctrl_site232] | 6.96
73 | TTTCTTAAATATATTGAGGAATAAAAAGAAGAAAAG [GTGCAC_negctrl_site281] | 7.09
74 | AGGTTACATAGATTTTGTACATATATATTATTTTTT [XGTACX_site3040] | 6.91
75 | AAAAAATTATAAAAGTGTACATATATATATATATAT [XGTACX_site154] | 9.3
76 | CATATTTCTTTATTGGCACACATTTTTTCAATTATA [CACACA_site1618] | 7.19
77 | AAAAAAAAAAAAAACACACACAAATTTAATCTATAT [CACACA_site6894] | 7.14
78 | TGTTATTACTTTATATCATCTTAAAATAAGCATATT [CACACA_negctrl_site1501] | 6.85
79 | TTGAAAATACAAAATTGTACAAAGATTTAAATAAAA [XGTACX_site1182] | 6.83
80 | TGAAATAAATAATGCACACTCTACAGATATACGTAT [CACACA_site5270] | 7.3
81 | TATTTATTTATGTGTTGTACAAATAAATAGAGGTAT [XGTACX_site6408] | 7.35
82 | ATATATTAAAAACGATGTACCCTGAACTAAAAAAAA [XGTACX_site4986] | 7.13
83 | TTTATTTATTACAATTTTTGAATCACCACACAGTCG [GTGCAC_negctrl_site413] | 7.02
84 | ATCATGTTATATACATGTACATATATATATATATAT [XGTACX_site1329] | 9.66
85 | TATATGAAAATGTTCATACACACATAAAAAAAAAAA [CACACA_site3237] | 6.93
86 | TTAAAATAGATAAATAGTACTCTTTCCATTATGTAA [XGTACX_site6299] | 6.67
87 | TATATAATAAGATATGCATGCACATGTAAAATGAAT [TGCATGCA_site499] | 8.94
88 | ATAATGTTTTATAATACACACATTAGATATATAAAT [CACACA_site7834] | 6.91
